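A five-concentration, 48-hour dose response in 96-well plates underlies each endpoint, interpolated linearly between surrounding concentrations. At the GI50, growth is halved.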 Activity calls are given as the source filed them. Cut-off read from the data, not from the text of the source: active = GI50 up to about 1.1 µM and inactive = higher.

This test relates to NCI-H322M. As to the kind of experiment: DTP human tumour cell line panel, 48 h.
Usually GI50 stands for the concentration giving 50% growth inhibition. Regarding `CCN1CCC(O)(/C=C/c2ccc(C(C)C)cc2)C(C(=O)/C=C/c2ccc(C(C)C)cc2)C1` (configuration not stated), the GI50 was inactive: 3.78 µM.
Then `N=C(N)N/N=C/c1c(-c2ccc([N+](=O)[O-])cc2)nc2sccn12`, with inactive: 1.74 µM.
Regarding `Cc1[nH]c2ccccc2c1C(=O)CC1(O)C(=O)Nc2c(Cl)cc(Cl)cc21` (configuration not stated), the GI50 was inactive: 54.8 µM.
As to `CCOC(=O)N1CCc2cc(OC)c(OC)c3c2C1CC3=O` (configuration not stated), the GI50 was inactive: > 100 µM.
As to `O=C1CN(c2ccccc2)C(=O)CN1NCNN1CC(=O)N(c2ccccc2)CC1=O`, the GI50 is inactive: > 100 µM.
For `CCOP(=O)(CC1CC(O)(CNc2cc(Cl)nc(N)n2)C1)OCC` (configuration not stated), the GI50 is inactive: > 100 µM.
In the case of `CC(C)CCNC(=O)c1ccc(CNC(=O)/C=C/c2csc(-c3ccccc3)n2)cc1`, the GI50 is inactive: > 100 µM.
Consider `CCCNC(=O)c1cc(OC)c(OC)cc1NC(=O)C12CC3CC(CC(C3)C1)C2`, for which the GI50 was inactive: 17 µM.
The figure for `CC(=O)c1ccc(NC(=O)C(=O)C(C(=O)c2ccc(Cl)c(Cl)c2)C2OC(=O)c3ccccc32)cc1` (configuration not stated) is inactive: 24.9 µM.
For `Cc1ccccc1C(C#N)/C(=N/NC(=O)C(=O)NN)C(=O)Nc1cccc(C(F)(F)F)c1` (configuration not stated), the GI50 is inactive: > 100 µM.
For `Cc1nn(C(=O)Cc2ccccc2)c2c1C(c1ccc(N(C)C)cc1)SC(=N)N2` (configuration not stated), the GI50 was inactive: > 100 µM.
`COC(=O)C1=C(OC(=O)c2ccccc2)C(C(=O)OC)[C@@]2(O)[C@@H](C(=O)OC)[C@H](C)C[C@@H]1[C@@H]2C(=O)OC` (some centres not stated): the GI50 was inactive: 23.6 µM.
With `COc1ccc(NC(=O)CC/C(CC(=O)C(C)(C)C)=N\NC(=O)C(N)=O)cc1`, the GI50 was inactive: > 100 µM.
As to `C=CNC(=O)NC(=O)CSc1nc(=O)c(-c2ccccc2NC(=O)C(F)(F)F)n[nH]1`, the GI50 was inactive: > 100 µM.
`O=c1cc(-c2ccccc2)nc(/C=C(\O)c2ccncc2)n1-c1ccccc1`: the GI50 was inactive: > 100 µM.
As for `CCC1=CC(OCc2ccccc2)C(CCN(Cc2ccccc2)C(=O)OCc2ccccc2)C1` (configuration not stated), the GI50 was inactive: 19.4 µM.
`Cc1ccc2c3c1O[C@H]1c4[nH]c5ccccc5c4C[C@@]4(O)[C@@H](C2)N(C)CC[C@]314`: the GI50 is inactive: 15.7 µM.
For the compound `CCc1cccc(CC)c1NC(=O)C(C#N)C1=C(Cl)C(=O)c2ccccc2C1=O` (configuration not stated), the GI50 was inactive: 19.8 µM.
With `CCOc1ccc2ccc3cccnc3c2n1`, the GI50 was inactive: 40.3 µM.
With `Cc1ccc(C(=O)O)c(/C=C2\Cc3ccc(C)cc3C2=O)c1`, the GI50 is inactive: 55 µM.
The figure for `CC1CC[C@@]2(OC1)OC1C[C@H]3[C@@H]4CCC5CC(O)CC[C@]5(C)[C@H]4C/C(=N\N(C)C)[C@]3(C)C1[C@@H]2C` (some centres not stated) is inactive: 21.2 µM.
Regarding `COC1/C=C\C=C(/C)C(=O)NC2=CC(=O)C=C(C2=O)C(OC)C(C)CC(OC)C(OC)C(C)/C=C(/C)C1OC(N)=O` (configuration not stated), the GI50 is inactive: 16.2 µM.
Consider `Nc1nc(SCCC/C=C/I)nc2c1ncn2C1OC(COP(=O)(O)O)C(O)C1O` (configuration not stated), for which the GI50 was inactive: > 100 µM.
On to `COc1ccc(OC)c2cc(C3(C)SCCCS3)ccc12`, for which the GI50 is inactive: > 100 µM.
Turning to `CC(C)C(/C=C/c1ccccc1)=N\NC(=O)N/N=C(/C=C/c1ccccc1)C(C)C`, the GI50 was inactive: 39 µM.
Turning to `C/C(Cl)=N\OC(=O)Nc1ccc([N+](=O)[O-])cc1`, the GI50 was inactive: > 100 µM.
With `OC(c1cc2ccc(C(F)(F)F)cc2c2cc(C(F)(F)F)ccc12)C1CCCCN1` (configuration not stated), the GI50 is inactive: 2.01 µM.
The figure for `COc1cc([C@@H]2c3cc4c(cc3[C@@H](/N=C/c3ccc(C(=O)O[C@H]5C[C@H]6OC[C@@]6(OC(C)=O)[C@H]6[C@H](OC(=O)c7ccccc7)[C@]7(O)C[C@H](OC(=O)[C@H](OC(=O)c8ccc(/C=N/[C@@H]9c%10cc%11c(cc%10[C@@H](c%10cc(OC)c(O)c(OC)c%10)[C@H]%10C(=O)OC[C@@H]%109)OCO%11)cc8)[C@@H](NC(=O)c8ccccc8)c8ccccc8)C(C)=C([C@@H](OC(C)=O)C(=O)[C@]56C)C7(C)C)cc3)C3COC(=O)C32)OCO4)cc(C)c1O` (some centres not stated) is inactive: 18.5 µM; for `Oc1ccc(-c2nn3c(CCCCCCCCc4nnc5sc(-c6ccc(O)cc6)nn45)nnc3s2)cc1` it is inactive: > 100 µM.
With `CCOC(=O)C(Cl)(Cl)/S(=N\S(=O)(=O)c1ccccc1)NC(=O)c1ccccc1` (configuration not stated), the GI50 was inactive: > 100 µM.
For `COc1ccc(NC(=O)Oc2cc(C)c3ccc(=O)cc-3o2)c(OC)c1.COc1ccc(NC(=O)Oc2ccc3c(C)cc(=O)oc3c2)c(OC)c1`, the GI50 is inactive: > 100 µM.
As to `O=C1Nc2ccc(Cl)cc2/C1=C\c1c(Cl)nc2sccn12`, the concentration for 50% growth inhibition (GI50) was active: < 0.01 µM.
Consider `N#C/C(=C1\OC(=N)C(c2ccc(Cl)cc2)=C1O)c1ccc(Cl)cc1`, for which the GI50 was inactive: 21.2 µM.
In the case of `CC(C)=CCC[C@@H](C)C1=C(O)C(=O)C(C)=C(c2c(I)c(=O)n(C)c(=O)n2C)C1=O`, the GI50 is inactive: > 100 µM.
Consider `O=C(O)[C@H](c1ccccc1)[C@@H](C(=O)O)c1ccccc1`, for which the GI50 was inactive: > 100 µM.
Turning to `CCOP(C)(=O)C(N)Cc1ccc(OC)c(OC)c1` (configuration not stated), the GI50 was inactive: > 100 µM.
For `CCOC(=O)C12CCSC1C1(C#N)C(C#N)=CC2(N=P(c2ccccc2)(c2ccccc2)c2ccccc2)n2c(=O)n(-c3ccccc3)c(=O)n21` (configuration not stated), the GI50 is inactive: > 100 µM.
In the case of `COc1cc(OC)cc(Oc2nc3ccccc3nc2C(=O)O)c1`, the GI50 is inactive: > 100 µM.
On to `Cc1cn2c(=O)c3ccccc3nc2s1`, for which the GI50 was inactive: > 100 µM.
Turning to `C1=CCN(c2ccccc2)CC1`, the GI50 is inactive: > 100 µM.
Then `Clc1ccccc1CN1COc2c(cc(Cl)c3cccnc23)C1`, with inactive: 2.9 µM; and `COC(=O)C(c1n[nH]c2ccccc12)C(C(=O)OC)c1n[nH]c2ccccc12` (configuration not stated), with inactive: > 100 µM.
As for `COC(=O)[C@H]1NC(=O)CCSSC1(C)C`, the GI50 is inactive: > 100 µM.
Consider `COC(=O)C1=NN2c3ccccc3C(=O)OCCC2(C)C1` (configuration not stated), for which the GI50 is inactive: > 100 µM.
For `CC[C@@]1(O)C(=O)OCc2c1cc1n(c2=O)Cc2c-1nc1ccccc1c2/C=N\NC(=O)C(N)Cc1c[nH]cn1` (some centres not stated), the GI50 is inactive: 2.29 µM.
As to `CS(=O)(=O)C1S(=O)(=O)OCCOS1(=O)=O`, the GI50 is inactive: > 100 µM.
The figure for `CN1C(=O)c2ccccc2NC(=O)C12O[C@@H]2c1cccc(O)c1` (some centres not stated) is inactive: > 100 µM.
As to `CCN(CCN(CC)C(=O)NC)C(=O)NC`, the GI50 is inactive: > 100 µM.
The figure for `COC(=O)C(C(=O)C(=O)Nc1cccc(C)c1)C1=NC(N)SS1` (configuration not stated) is inactive: > 100 µM; for `CC(=O)Oc1ccc(/C=C/C(=O)OCCCOC(=O)/C=C/c2ccc(OC(C)=O)c(OC(C)=O)c2)cc1OC(C)=O` it is inactive: > 100 µM; for `CC(C)(C)OC(=O)Nc1nnc(S(N)(=O)=O)s1` it is inactive: > 100 µM.
Consider `C=C1[C@H](OCC(C)C)[C@@H](O)[C@@H](OC(=O)c2cccnc2)C(C)(C)/C=C/[C@H](C)[C@H](OC(C)=O)[C@@]2(O)C[C@@](C)(OC(C)=O)[C@H](OC(=O)c3ccccc3)[C@@H]2[C@H]1OC(C)=O`, for which the GI50 is inactive: > 3.05 µM.

(Values after ChEMBL document CHEMBL1201862, “PubChem BioAssay data set” (2004).)
